# Hit rate of the full screen: of about 420,000 compounds, about 50,000 (12%) were called active. The shares of active, inactive and inconclusive entries below differ from those in the screen. Calls come from the whole dose curve; as a rule, active = well fitted inhibition curve with a large enough effect; inconclusive = small, poorly fitted or top-dose-only effect; inactive = flat fitted curve, though single readings scatter. No potency is given beside an inconclusive call; the fits are too rough. The source holds several records for some structures; these can differ, active in one and inactive in another.
# Test: qHTS for Inhibitors of human tyrosyl-DNA phosphodiesterase 1 (TDP1): qHTS in cells in presence of CPT; note: nearly all actives have a fitted effect of over 55% in size
# Conditions: chicken DT40 Tdp1-/-;hTDP1 cells + 20 nM CPT, ATP luminescence, 48 h; activity change, negative = growth inhibition: at 46.2 µM (top of the series) unless noted
# How it was run: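 Chicken DT40 Tdp1-/- cells stably complemented with human TDP1 were seeded at 400 cells/well in medium containing 20 nM camptothecin, exposed to pin-transferred compounds, and grown at 37 °C for at least 48 hr. Viability was read as ATP luminescence.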
# % is set by controls: 0 for no effect and ±100 for the full control effect; potency is the fitted concentration of half-maximal effect; tags give direction and shape of the fitted curve.
SMILES,Potency,"activity change, negative = growth inhibition"
Clc1ncnc2scc(-c3ccc(Br)cc3)c12,"inconclusive [inhibitor, single point]",–
O=C(NC(=S)Nc1ccc(S(=O)(=O)N2CCCCCC2)cc1)c1cccs1,"inconclusive [inhibitor, single point]",–
CC(C)c1onc(C(=O)NCc2ccc(F)cc2)c1[N+](=O)[O-],"inconclusive [inhibitor, single point]",–
COc1ccc(C(=O)NNC(=S)NC(=O)c2cc(-c3ccccc3)nc3ccccc23)cc1,"inconclusive [inhibitor, single point]",–
Cc1cc2c(Nc3ccccc3)ncnc2s1,inactive,–
Cc1ccc(C(=O)NC(=O)CSc2ncccc2C(=O)O)cc1,inactive,–
COc1ccc(Cl)cc1Nc1nc(Cl)nc(NCCO)n1,"inconclusive [inhibitor, single point]",–
CC(=O)c1cc(-c2ccccc2)n(CC(=O)NCc2ccccc2C)c1C,–,inconclusive: -20.8% [inhibitor]
COC(=O)c1cc2sc(C)cc2n1CC(=O)Nc1ccc(C)cc1Cl,"inconclusive [inhibitor, single point]",–
C=C1CCN([C@@H](CC(C)C)C(=O)NCc2ccco2)S(=O)(=O)c2ccccc21,"inconclusive [inhibitor, single point]",–
O=C1c2ccccc2[C@@H]2C[C@@H](O)[C@H](Nc3ccccc3-c3ccccc3)CCN12,"inconclusive [inhibitor, single point]",–
COc1cc(C(=O)NNC(=O)c2ccc3ccccc3n2)cc(OC)c1OC,"inconclusive [inhibitor, single point]",–
O=C(c1ccccc1)N1CCCC(C(=O)N2CCCCC2)C1 (configuration not stated),inactive,–
COC(=O)c1c(S(C)(=O)=O)nc(-c2ccccc2)[nH]c1=O,inactive,–
COc1ccc2c(CC(=O)Nc3ccc(OC)c(NS(=O)(=O)c4ccc(F)cc4)c3)coc2c1,inactive,–
CC1CCCN(S(=O)(=O)c2ccc(C(=O)NC(C)c3ccccc3)cc2)C1 (configuration not stated),–,inconclusive: -30.8% [inhibitor]
Nc1nc(SCC(=O)N2CCCC2)[nH]c(=O)c1NC(=O)c1cccs1,inactive,–
c1ccc(CSc2ccc3nnc(-c4cccnc4)n3n2)cc1,"inconclusive [inhibitor, single point]",–
COc1ccc(N2CCN(Cc3cc4c(cc3O)CCC4)CC2)cc1,active: 25.9 µM,–
Cc1oc2c(cc(NS(=O)(=O)c3ccc(F)cc3)c3ccccc32)c1C(=O)OCc1ccccc1,"inconclusive [inhibitor, single point]",–
Cc1ccc(OCCC(=O)N2CCN(c3ccc(O)cc3)CC2)cc1,"inconclusive [inhibitor, single point]",–
CCc1ccc(Nc2cc(C)nc3nc(C)nn23)cc1,"inconclusive [inhibitor, single point]",–
COc1ccc(NC(=O)N2CCN(C(=O)C3CCCO3)CC2)cc1 (configuration not stated),inactive,–
Cc1[nH]n2c(=O)c3c(nc2c1-c1cccc2ccccc12)CCC3,"inconclusive [inhibitor, single point]",–

SMILES,Potency,"activity change, negative = growth inhibition"
C(=N\Nc1ccccn1)/c1ccc(N2CCOCC2)cc1,active: 23.1 µM,–
COc1ccc(C(=O)N=c2sc3ccccc3n2C)cc1OC,"inconclusive [inhibitor, single point]",–
Cc1cccc(OCCSc2nnc(-c3ccoc3C)n2C)c1,active: 23.1 µM,–
COc1ccc(C(NC(=O)C2CCN(CCCc3ccccc3)CC2)c2ccccn2)cc1 (configuration not stated),inactive,–
Cn1c(=O)c2cc(NC(=O)Nc3cccnc3)ccc2n1-c1ccc(C(C)(C)C)cc1,"inconclusive [inhibitor, single point]",–
Cc1cccc(N2CCN(CC(O)COc3ccccc3Cl)CC2)c1 (configuration not stated),"inconclusive [inhibitor, single point]",–
C=CCn1c(-c2cccnc2Cl)nc2ccccc21,inactive,–
Cc1cc(C)cc(OCC(=O)NNC(=O)CCN2C(=O)c3ccccc3C2=O)c1,inactive,–
Cc1cc(C)c2nc(NC(=O)C3CC(=O)N(Cc4ccco4)C3)sc2c1 (configuration not stated),"inconclusive [inhibitor, partial curve]",–
Cc1nc2ccccc2nc(C)c1=NOCC(=O)N(c1ccccc1)C(C)C,"inconclusive [inhibitor, single point]",–
CCN1CCc2c(sc(-n3cccc3)c2C(C)NC(=O)Nc2ccccc2C)C1 (configuration not stated),"inconclusive [inhibitor, single point]",–
Cc1cccc(CC(=O)Nc2cccc(-c3nc4cccnc4s3)c2)c1,inactive,–
COc1ccccc1NC(=O)CNC(c1ccccc1)c1ccccc1,"inconclusive [inhibitor, single point]",–
O=C1CCCN1CCCNc1nc2c(S(=O)(=O)c3ccc(Br)cc3)nnn2c2ccccc12,"inconclusive [inhibitor, single point]",–
CCC1CCCCN1c1nc(-c2ccncc2)nc2ccccc12 (configuration not stated),active: 29.1 µM,–
Cc1ccc(C(=O)CSc2nnc3c4ccccc4nc(Cc4ccccc4)n23)cc1,"inconclusive [inhibitor, single point]",–
COc1ccccc1CNC(=O)c1cc2ccc3ccc(C)[nH]c3c2n1,active: 18.4 µM,–
Cc1ccc(/C=C/C(=O)c2ccccc2)cc1,"inconclusive [inhibitor, partial curve]",–
Cc1coc2c(C)c3oc(=O)c(CC(=O)N[C@@H](CC(C)C)C(=O)O)c(C)c3cc12,inactive,–
CC[C@H](C)[C@H](NC(=O)OCc1ccccc1)C(=O)OCC(=O)Nc1ccc(N2CCOCC2)cc1,inactive,–
Cc1ccc2oc(-c3ccc(C)c(NC(=S)NC(=O)c4cccs4)c3)nc2c1,"inconclusive [inhibitor, single point]",–
Cc1ccc(C)c(N2CCN(S(=O)(=O)c3csc(C(N)=O)c3)CC2)c1,active: 16.4 µM,–
COCC(=O)NNS(=O)(=O)c1ccccc1[N+](=O)[O-],inactive,–

# Source: PubChem BioAssay AID686979 (National Center for Advancing Translational Sciences (NCATS), 2013)
